Results: the CheMixHub viscosity set
± gives the uncertainty stated by the source. This continues a long series; more values of the same kind are listed elsewhere.

Experiment: xn = mol fraction of the nth substance listed

OCCO + O
Settings | viscosity [mPa·s]
293.15 K, 101 kPa, x1 = 0.045 | 1.46 ± 0.01
293.15 K, 101 kPa, x1 = 0.104 | 2.25 ± 0.02
293.15 K, 101 kPa, x1 = 0.162 | 2.98 ± 0.03
293.15 K, 101 kPa, x1 = 0.225 | 3.96 ± 0.05
293.15 K, 101 kPa, x1 = 0.322 | 5.178 ± 0.071
293.15 K, 101 kPa, x1 = 0.404 | 7.1 ± 0.11
293.15 K, 101 kPa, x1 = 0.5563 | 9.573 ± 0.13
293.15 K, 101 kPa, x1 = 0.569 | 10.3 ± 0.2
293.15 K, 101.33 kPa, x1 = 0.0312 | 1.279 ± 0.14
293.15 K, 101.33 kPa, x1 = 0.0487 | 1.46 ± 0.16
293.15 K, 101.33 kPa, x1 = 0.0677 | 1.646 ± 0.18
293.15 K, 101.33 kPa, x1 = 0.1 | 1.99 ± 0.22
293.15 K, 101.33 kPa, x1 = 0.1622 | 2.794 ± 0.3
293.15 K, 101.33 kPa, x1 = 0.2 | 3.343 ± 0.36
293.15 K, 101.33 kPa, x1 = 0.225 | 3.711 ± 0.4
293.15 K, 101.33 kPa, x1 = 0.3003 | 4.917 ± 0.53
293.15 K, 101.33 kPa, x1 = 0.4038 | 6.825 ± 0.73
293.15 K, 101.33 kPa, x1 = 0.5373 | 9.656 ± 1
293.15 K, 101.33 kPa, x1 = 0.7232 | 13.71 ± 1.4
298 K, 101.3 kPa, x1 = 0.068 | 1.35 ± 0.12
298 K, 101.3 kPa, x1 = 0.16 | 2.23 ± 0.14
298 K, 101.3 kPa, x1 = 0.54 | 8.14 ± 0.32
298.15 K, 100 kPa, x1 = 0.2 | 2.925 ± 0.033
298.15 K, 100 kPa, x1 = 0.4 | 5.764 ± 0.064
298.15 K, 100 kPa, x1 = 0.6 | 9.207 ± 0.1
298.15 K, 100 kPa, x1 = 0.8 | 13.1 ± 0.15
298.15 K, 101.33 kPa, x1 = 0.04551 | 1.26 ± 0.03
298.15 K, 101.33 kPa, x1 = 0.1256 | 1.62 ± 0.04
298.15 K, 101.33 kPa, x1 = 0.1927 | 2.86 ± 0.07
298.15 K, 101.33 kPa, x1 = 0.2218 | 3.2 ± 0.08
298.15 K, 101.33 kPa, x1 = 0.3108 | 4.49 ± 0.12
298.15 K, 101.33 kPa, x1 = 0.3983 | 6.23 ± 0.16
298.15 K, 101.33 kPa, x1 = 0.474 | 9.2 ± 0.24
302.25 K, 101 kPa, x1 = 0.458 | 5.8 ± 0.17
302.35 K, 101 kPa, x1 = 0.088 | 1.448 ± 0.034
302.75 K, 101 kPa, x1 = 0.224 | 2.732 ± 0.072
303.15 K, 101 kPa, x1 = 0.01 | 0.857 ± 0.008
303.15 K, 101 kPa, x1 = 0.02 | 0.929 ± 0.009
303.15 K, 101 kPa, x1 = 0.0299 | 0.996 ± 0.009
303.15 K, 101 kPa, x1 = 0.0376 | 1.056 ± 0.014
303.15 K, 101 kPa, x1 = 0.0399 | 1.062 ± 0.01
303.15 K, 101 kPa, x1 = 0.05 | 1.132 ± 0.011
303.15 K, 101 kPa, x1 = 0.06 | 1.212 ± 0.011
303.15 K, 101 kPa, x1 = 0.07 | 1.292 ± 0.012
303.15 K, 101 kPa, x1 = 0.08 | 1.371 ± 0.013
303.15 K, 101 kPa, x1 = 0.1001 | 1.534 ± 0.014
303.15 K, 101 kPa, x1 = 0.1755 | 2.191 ± 0.03
303.15 K, 101 kPa, x1 = 0.5563 | 6.637 ± 0.092
303.15 K, 101.33 kPa, x1 = 0.0487 | 1.181 ± 0.13
303.15 K, 101.33 kPa, x1 = 0.0677 | 1.317 ± 0.14
303.15 K, 101.33 kPa, x1 = 0.1 | 1.577 ± 0.17
303.15 K, 101.33 kPa, x1 = 0.1622 | 2.131 ± 0.23
303.15 K, 101.33 kPa, x1 = 0.2 | 2.496 ± 0.27
303.15 K, 101.33 kPa, x1 = 0.225 | 2.764 ± 0.3
303.15 K, 101.33 kPa, x1 = 0.3003 | 3.595 ± 0.39
303.15 K, 101.33 kPa, x1 = 0.4038 | 4.866 ± 0.52
303.15 K, 101.33 kPa, x1 = 0.5373 | 6.671 ± 0.71
303.15 K, 101.33 kPa, x1 = 0.7232 | 9.406 ± 0.99
308.15 K, 101 kPa, x1 = 0.01 | 0.772 ± 0.008
308.15 K, 101 kPa, x1 = 0.02 | 0.836 ± 0.008
308.15 K, 101 kPa, x1 = 0.0299 | 0.893 ± 0.009
308.15 K, 101 kPa, x1 = 0.0399 | 0.95 ± 0.009
308.15 K, 101 kPa, x1 = 0.05 | 1.01 ± 0.01
308.15 K, 101 kPa, x1 = 0.06 | 1.079 ± 0.01
308.15 K, 101 kPa, x1 = 0.08 | 1.215 ± 0.011
308.15 K, 101 kPa, x1 = 0.0899 | 1.283 ± 0.012
308.15 K, 101 kPa, x1 = 0.1001 | 1.354 ± 0.013
312.65 K, 101 kPa, x1 = 0.458 | 4.207 ± 0.12
312.75 K, 101 kPa, x1 = 0.224 | 2.069 ± 0.054
313.15 K, 101 kPa, x1 = 0.01 | 0.699 ± 0.007
313.15 K, 101 kPa, x1 = 0.02 | 0.756 ± 0.007
313.15 K, 101 kPa, x1 = 0.0299 | 0.807 ± 0.008
313.15 K, 101 kPa, x1 = 0.0376 | 0.8523 ± 0.011
313.15 K, 101 kPa, x1 = 0.0399 | 0.856 ± 0.008
313.15 K, 101 kPa, x1 = 0.05 | 0.908 ± 0.009
313.15 K, 101 kPa, x1 = 0.06 | 0.969 ± 0.009
313.15 K, 101 kPa, x1 = 0.07 | 1.026 ± 0.01
313.15 K, 101 kPa, x1 = 0.0744 | 1.067 ± 0.014
313.15 K, 101 kPa, x1 = 0.08 | 1.086 ± 0.01
313.15 K, 101 kPa, x1 = 0.088 | 1.125 ± 0.026
313.15 K, 101 kPa, x1 = 0.0899 | 1.145 ± 0.011
313.15 K, 101 kPa, x1 = 0.1001 | 1.205 ± 0.011
313.15 K, 101 kPa, x1 = 0.1209 | 1.343 ± 0.018
313.15 K, 101 kPa, x1 = 0.1755 | 1.704 ± 0.023
313.15 K, 101 kPa, x1 = 0.5563 | 4.838 ± 0.066
313.15 K, 101.33 kPa, x1 = 0.0312 | 0.8238 ± 0.091
313.15 K, 101.33 kPa, x1 = 0.0487 | 0.9179 ± 0.1
313.15 K, 101.33 kPa, x1 = 0.0677 | 1.034 ± 0.11
313.15 K, 101.33 kPa, x1 = 0.1 | 1.244 ± 0.14
313.15 K, 101.33 kPa, x1 = 0.1622 | 1.634 ± 0.18
313.15 K, 101.33 kPa, x1 = 0.2 | 2.074 ± 0.22
313.15 K, 101.33 kPa, x1 = 0.225 | 2.116 ± 0.23
313.15 K, 101.33 kPa, x1 = 0.3003 | 2.789 ± 0.3
313.15 K, 101.33 kPa, x1 = 0.4038 | 3.613 ± 0.39
313.15 K, 101.33 kPa, x1 = 0.5373 | 4.906 ± 0.53
313.15 K, 101.33 kPa, x1 = 0.7232 | 6.737 ± 0.72
318.15 K, 101 kPa, x1 = 0.01 | 0.64 ± 0.006
318.15 K, 101 kPa, x1 = 0.02 | 0.69 ± 0.007
318.15 K, 101 kPa, x1 = 0.0299 | 0.733 ± 0.007
318.15 K, 101 kPa, x1 = 0.0399 | 0.777 ± 0.008
318.15 K, 101 kPa, x1 = 0.05 | 0.822 ± 0.008
318.15 K, 101 kPa, x1 = 0.06 | 0.876 ± 0.008
318.15 K, 101 kPa, x1 = 0.07 | 0.927 ± 0.009
318.15 K, 101 kPa, x1 = 0.08 | 0.976 ± 0.009
318.15 K, 101 kPa, x1 = 0.0899 | 1.03 ± 0.01
318.15 K, 101 kPa, x1 = 0.1001 | 1.083 ± 0.01
323.15 K, 100 kPa, x1 = 0.2 | 1.468 ± 0.019
323.15 K, 100 kPa, x1 = 0.4 | 2.638 ± 0.036
323.15 K, 100 kPa, x1 = 0.6 | 3.948 ± 0.058
323.15 K, 100 kPa, x1 = 0.8 | 5.303 ± 0.082
323.15 K, 101 kPa, x1 = 0.01 | 0.587 ± 0.006
323.15 K, 101 kPa, x1 = 0.02 | 0.63 ± 0.006
323.15 K, 101 kPa, x1 = 0.0299 | 0.671 ± 0.007
323.15 K, 101 kPa, x1 = 0.0376 | 0.7163 ± 0.0097
323.15 K, 101 kPa, x1 = 0.0399 | 0.709 ± 0.007
323.15 K, 101 kPa, x1 = 0.05 | 0.75 ± 0.007
323.15 K, 101 kPa, x1 = 0.06 | 0.795 ± 0.008
323.15 K, 101 kPa, x1 = 0.07 | 0.842 ± 0.008
323.15 K, 101 kPa, x1 = 0.0744 | 0.8672 ± 0.012
323.15 K, 101 kPa, x1 = 0.08 | 0.887 ± 0.009
323.15 K, 101 kPa, x1 = 0.0899 | 0.933 ± 0.009
323.15 K, 101 kPa, x1 = 0.1001 | 0.978 ± 0.009
323.15 K, 101 kPa, x1 = 0.1209 | 1.09 ± 0.015
323.15 K, 101 kPa, x1 = 0.1755 | 1.367 ± 0.018
323.15 K, 101 kPa, x1 = 0.322 | 2.175 ± 0.027
323.15 K, 101 kPa, x1 = 0.5563 | 3.662 ± 0.051
